# Data reported in the supplement of paper PMC3334620.
# In all, about 33,000 sequences were measured (“E-score (-0.5 to 0.5)”: median about -0.053, highest 2% from about 0.37 on). The list shows a part of the results.
# Target: Hap1 (UniProt P0CE41)
# Test: PBM E-score (8-mer binding enrichment) (E-score (-0.5 to 0.5)); higher = stronger / more preferred TF binding; most listed sequences are background and not binding sites
# Conditions: protein concentration: 200 nM; construct: GST-DNA-binding domain
# Procedure, shortened: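 Yeast transcription factors carrying a GST tag, as full-length proteins or DNA-binding domains, were produced by PURExpress in vitro transcription/translation. About 100-200 nM protein was applied to universal all-10-mer Agilent arrays, double-stranded by primer extension on fresh or once-stripped slides. Bound protein was detected with fluorescent anti-GST, and scans were normalised with masliner. The Universal PBM Analysis Suite gave each ungapped eight-base word, pooled with its reverse complement, an E-score, a modified Wilcoxon-Mann-Whitney statistic.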
# Sequence of UniProt P0CE41 (P0CE41 whole entry): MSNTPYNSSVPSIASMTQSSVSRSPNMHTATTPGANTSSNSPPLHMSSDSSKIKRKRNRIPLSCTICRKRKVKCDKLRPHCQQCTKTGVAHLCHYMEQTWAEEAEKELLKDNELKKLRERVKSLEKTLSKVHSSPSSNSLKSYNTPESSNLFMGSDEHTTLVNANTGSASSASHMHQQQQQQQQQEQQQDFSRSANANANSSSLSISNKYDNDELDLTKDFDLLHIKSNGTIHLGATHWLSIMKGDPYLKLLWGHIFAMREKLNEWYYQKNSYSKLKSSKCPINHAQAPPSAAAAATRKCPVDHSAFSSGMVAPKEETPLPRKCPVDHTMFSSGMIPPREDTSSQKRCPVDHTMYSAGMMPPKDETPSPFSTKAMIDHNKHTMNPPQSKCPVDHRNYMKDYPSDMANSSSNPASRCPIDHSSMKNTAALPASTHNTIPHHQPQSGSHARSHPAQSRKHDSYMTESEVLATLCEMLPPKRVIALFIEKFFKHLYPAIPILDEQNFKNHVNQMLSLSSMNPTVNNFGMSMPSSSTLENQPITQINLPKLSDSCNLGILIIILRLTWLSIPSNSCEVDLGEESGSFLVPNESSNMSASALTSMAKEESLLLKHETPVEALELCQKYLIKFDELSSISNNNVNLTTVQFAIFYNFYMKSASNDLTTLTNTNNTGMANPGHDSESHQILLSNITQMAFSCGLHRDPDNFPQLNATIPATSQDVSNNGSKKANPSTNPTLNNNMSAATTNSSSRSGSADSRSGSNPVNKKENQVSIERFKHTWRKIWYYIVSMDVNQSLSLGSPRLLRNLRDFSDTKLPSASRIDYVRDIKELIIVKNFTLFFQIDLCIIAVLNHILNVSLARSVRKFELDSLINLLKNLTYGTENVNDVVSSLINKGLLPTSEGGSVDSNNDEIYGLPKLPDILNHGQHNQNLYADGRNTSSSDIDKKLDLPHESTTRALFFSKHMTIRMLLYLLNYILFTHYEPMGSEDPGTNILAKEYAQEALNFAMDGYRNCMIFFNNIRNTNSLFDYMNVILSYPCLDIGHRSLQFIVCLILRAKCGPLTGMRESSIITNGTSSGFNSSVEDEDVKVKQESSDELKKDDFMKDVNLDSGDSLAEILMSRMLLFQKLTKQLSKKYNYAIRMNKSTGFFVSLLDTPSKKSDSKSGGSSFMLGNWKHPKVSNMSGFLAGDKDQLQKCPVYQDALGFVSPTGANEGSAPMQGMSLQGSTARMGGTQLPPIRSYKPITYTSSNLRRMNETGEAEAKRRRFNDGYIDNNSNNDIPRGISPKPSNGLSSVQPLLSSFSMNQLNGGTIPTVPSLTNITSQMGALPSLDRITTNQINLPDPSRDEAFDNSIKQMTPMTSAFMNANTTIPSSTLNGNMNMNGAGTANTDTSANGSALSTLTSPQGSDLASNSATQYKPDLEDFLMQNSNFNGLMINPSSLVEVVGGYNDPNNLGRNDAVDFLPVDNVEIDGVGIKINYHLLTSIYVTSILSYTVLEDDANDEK
row,Sequence,PBM E-score
1,CATGTACC,-0.161
2,GCCTGCCA,-0.181
3,CCAAAACC,0.0626
4,GTCAACAA,-0.228
5,AGCCAGCC,-0.199
6,ACTGTCTG,-0.191
7,AAATAGTA,0.00936
8,CCGTACTC,-0.0134
9,GGTCACCA,-0.24
10,CTATCGAG,-0.0625
11,CGTGGGGC,0.13
12,AAGCTAAT,-0.074
13,AGTTATCG,0.382
14,CTGTGTAC,-0.0675
15,ACCAACAT,-0.117
16,GCCGCCTA,-0.0827
17,CAGATCCA,-0.0335
18,CAGGTGAA,-0.193
19,CCAGCGAA,-0.0597
20,TGATAAAA,-0.0276
21,GATTTCAA,0.167
22,ATAGGACG,-0.101

row,Sequence,PBM E-score
1,AGCCACCT,-0.268
2,GGCTACCA,-0.204
3,ATGATTAG,-0.0377
4,CGTTACGA,0.133
5,GGTTCTGA,-0.0989
6,GCCGTGAC,0.133
7,GCATGCGA,0.0384
8,CCCCTCCC,-0.00587
9,TAAAAGTA,0.0319
10,AATCAAGA,-0.255
11,ATGGCCCA,0.116
12,ACTGACCG,0.226
13,CATCTTGA,-0.139
14,CAGGGCGA,-0.0338
15,GGGACGAA,0.0323
16,ATCTTGAG,-0.192
17,GGAGATAC,0.438
18,CTTCCCGA,0.143
19,CGTGACAA,-0.0742
20,AACGCATT,0.0181
21,AGTCATCA,-0.137
22,ATCGACTC,-0.15

row,Sequence,PBM E-score
1,CGTCGCAG,-0.115
2,AGCCCAAC,-0.259
3,GGATGGTA,-0.0158
4,GGACATTA,0.368
5,ACGTAACC,0.0628
6,CAATGATG,-0.14
7,CCCGGTGA,0.23
8,CCAATCTA,-0.0103
9,AATCCCGC,0.257
10,AGTAAGTC,-0.0852
11,GCCTGACA,-0.207
12,CTATCTAC,-0.0399
13,TACCAACA,-0.294
14,TCTGTGCA,-0.194
15,TGGAGAAA,-0.0481
16,CGGCATCC,0.218
17,AAGCAGGT,-0.0562
18,ACCGGAGC,0.409
19,CGAATACG,0.125
20,CAACCTCG,0.176
21,CTGTAAAC,-0.373
22,TAGAGGGA,-0.239

row,Sequence,PBM E-score
1,CGTATACC,-0.0877
2,ACCTCCCT,-0.183
3,CTTCCCTC,-0.191
4,ACGCCACA,-0.0123
5,TGGCCAAA,-0.2
6,ACCACCTC,0.118
7,CCCTACAA,-0.126
8,GGAGGGTA,0.107
9,CGCCAGTA,-0.0225
10,GATCGTAC,-0.00738
11,AAGGTCCG,0.349
12,CAGTTTCC,0.0814
13,GATTCGCC,0.0633
14,ACATCTCT,-0.0976
15,AACATTTG,-0.17
16,CTAGCTTC,-0.0202
17,AGTCGTCA,-0.255
18,AAAACGCG,0.149
19,GGCAAAAA,0.123
20,CCAAAGAG,-0.139
21,TCGTATAA,0.0439
22,AAATAACC,0.0225

row,Sequence,PBM E-score
1,AATTTTGG,-0.0933
2,GAGGTGAA,-0.0161
3,CAACCGTG,-0.151
4,CCCACATC,-0.0942
5,ACGAGTAC,-0.169
6,AGAGGAGG,-0.278
7,ATACGCCA,-0.0482
8,CACGCCCA,-0.202
9,CGGCGGGA,0.338
10,AAGGAATA,-0.00042
11,GCATGTCA,-0.0466
12,CGTCGAAA,0.104
13,GCTTCAAC,-0.0828
14,CCCTCCGG,0.331
15,GGCCGAAC,0.37
16,ACTAAGAC,-0.184
17,GTTCGCGA,0.0847
18,GAGCCGCC,0.222
19,CTGTCCCA,-0.242
20,CTCGTCAA,-0.232
21,ACCGAGAC,0.28
